# Measured values from publication PMC9911399, “Two distinct binding modes provide the RNA-binding protein RbFox with extraordinary sequence specificity”.
# Residue numbers refer to the chain shown, from its start. Some of the results follow.
# T1: RBFOX1 RRM RbFoxmut (Fox-RRM*) (Homo sapiens, UniProt Q9NWB1 109-208, R118D;E147R;N151S;E152T)
# T1 sequence: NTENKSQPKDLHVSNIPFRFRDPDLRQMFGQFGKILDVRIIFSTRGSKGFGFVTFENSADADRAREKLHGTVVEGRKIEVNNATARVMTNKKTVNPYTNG
# B1: CUUGUUC (DNA:RNA)
# RNA: GGGAGACCGGAAUUCAGAUUGUCCCUUGUUCUUAAAUCCCGUCGUAGCCACCA
# DNA 1: CAATCTGAATTCCGGTCTCCC
# DNA 2: TGGTGGCTACGACGGGATT
# B2: CCGCAGG (DNA:RNA)
# RNA: B1 RNA with U26C, U27G, G28C, U29A, U30G, C31G
# DNA 1: CAATCTGAATTCCGGTCTCCC
# DNA 2: TGGTGGCTACGACGGGATT
# B3: AUGCGGC (DNA:RNA)
# RNA: B1 RNA with C25A, U27G, G28C, U29G, U30G
# DNA 1: CAATCTGAATTCCGGTCTCCC
# DNA 2: TGGTGGCTACGACGGGATT
# B4: GCGCAGA (DNA:RNA)
# RNA: GGGAGACCGGAAUUCAGAUUGUCCGCGCAGAUUAAAUCCCGUCGUAGCCACCA
# DNA 1: CAATCTGAATTCCGGTCTCCC
# DNA 2: TGGTGGCTACGACGGGATT
# B5: UAAUAGC (DNA:RNA)
# RNA: B4 RNA with G25U, C26A, G27A, C28U, A31C
# DNA 1: CAATCTGAATTCCGGTCTCCC
# DNA 2: TGGTGGCTACGACGGGATT
# B6: ACAAAUC (DNA:RNA)
# RNA: B1 RNA with C25A, U26C, U27A, G28A, U29A
# DNA 1: CAATCTGAATTCCGGTCTCCC
# DNA 2: TGGTGGCTACGACGGGATT
# B7: AGGCAUU (DNA:RNA)
# RNA: B4 RNA with G25A, C26G, G30U, A31U
# DNA 1: CAATCTGAATTCCGGTCTCCC
# DNA 2: TGGTGGCTACGACGGGATT
# B8: AUUCCCG (DNA:RNA)
# RNA: B1 RNA with C25A, G28C, U29C, U30C, C31G
# DNA 1: CAATCTGAATTCCGGTCTCCC
# DNA 2: TGGTGGCTACGACGGGATT
# B9: UCUUCCG (DNA:RNA)
# RNA: B1 RNA with C25U, U26C, G28U, U29C, U30C, C31G
# DNA 1: CAATCTGAATTCCGGTCTCCC
# DNA 2: TGGTGGCTACGACGGGATT
# B10: CCGUCUC (DNA:RNA)
# RNA: B1 RNA with U26C, U27G, G28U, U29C
# DNA 1: CAATCTGAATTCCGGTCTCCC
# DNA 2: TGGTGGCTACGACGGGATT
# B11: UUCGGAG (DNA:RNA)
# RNA: B1 RNA with C25U, U27C, U29G, U30A, C31G
# DNA 1: CAATCTGAATTCCGGTCTCCC
# DNA 2: TGGTGGCTACGACGGGATT
# B12: UCAGAUC (DNA:RNA)
# RNA: B1 RNA with C25U, U26C, U27A, U29A
# DNA 1: CAATCTGAATTCCGGTCTCCC
# DNA 2: TGGTGGCTACGACGGGATT
# B13: ACCCAUC (DNA:RNA)
# RNA: B4 RNA with G25A, G27C, G30U, A31C
# DNA 1: CAATCTGAATTCCGGTCTCCC
# DNA 2: TGGTGGCTACGACGGGATT
# B14: GAAUCUU (DNA:RNA)
# RNA: B1 RNA with C25G, U26A, U27A, G28U, U29C, C31U
# DNA 1: CAATCTGAATTCCGGTCTCCC
# DNA 2: TGGTGGCTACGACGGGATT
# B15: CGCCCGA (DNA:RNA)
# RNA: B4 RNA with G25C, C26G, G27C, A29C
# DNA 1: CAATCTGAATTCCGGTCTCCC
# DNA 2: TGGTGGCTACGACGGGATT
# B16: AGAGCUU (DNA:RNA)
# RNA: B1 RNA with C25A, U26G, U27A, U29C, C31U
# DNA 1: CAATCTGAATTCCGGTCTCCC
# DNA 2: TGGTGGCTACGACGGGATT
# B17: GUUCUUC (DNA:RNA)
# RNA: B1 RNA with C25G, G28C
# DNA 1: CAATCTGAATTCCGGTCTCCC
# DNA 2: TGGTGGCTACGACGGGATT
# B18: AAUUAAU (DNA:RNA)
# RNA: B1 RNA with C25A, U26A, G28U, U29A, U30A, C31U
# DNA 1: CAATCTGAATTCCGGTCTCCC
# DNA 2: TGGTGGCTACGACGGGATT
# B19: GGGGGAG (DNA:RNA)
# RNA: B4 RNA with C26G, C28G, A29G, G30A, A31G
# DNA 1: CAATCTGAATTCCGGTCTCCC
# DNA 2: TGGTGGCTACGACGGGATT
# B20: AAUAUAA (DNA:RNA)
# RNA: B1 RNA with C25A, U26A, G28A, U30A, C31A
# DNA 1: CAATCTGAATTCCGGTCTCCC
# DNA 2: TGGTGGCTACGACGGGATT
# B21: ACGGUUU (DNA:RNA)
# RNA: B1 RNA with C25A, U26C, U27G, C31U
# DNA 1: CAATCTGAATTCCGGTCTCCC
# DNA 2: TGGTGGCTACGACGGGATT
# B22: UAGUCGC (DNA:RNA)
# RNA: B4 RNA with G25U, C26A, C28U, A29C, A31C
# DNA 1: CAATCTGAATTCCGGTCTCCC
# DNA 2: TGGTGGCTACGACGGGATT
# B23: CACCAUC (DNA:RNA)
# RNA: B1 RNA with U26A, U27C, G28C, U29A
# DNA 1: CAATCTGAATTCCGGTCTCCC
# DNA 2: TGGTGGCTACGACGGGATT
# B24: AGCAAAA (DNA:RNA)
# RNA: B4 RNA with G25A, C26G, G27C, C28A, G30A
# DNA 1: CAATCTGAATTCCGGTCTCCC
# DNA 2: TGGTGGCTACGACGGGATT
# B25: UUCCGUC (DNA:RNA)
# RNA: B1 RNA with C25U, U27C, G28C, U29G
# DNA 1: CAATCTGAATTCCGGTCTCCC
# DNA 2: TGGTGGCTACGACGGGATT
# B26: CAUAGUC (DNA:RNA)
# RNA: B1 RNA with U26A, G28A, U29G
# DNA 1: CAATCTGAATTCCGGTCTCCC
# DNA 2: TGGTGGCTACGACGGGATT
# B27: GUGCACC (DNA:RNA)
# RNA: B4 RNA with C26U, G30C, A31C
# DNA 1: CAATCTGAATTCCGGTCTCCC
# DNA 2: TGGTGGCTACGACGGGATT
# B28: CCUCCAC (DNA:RNA)
# RNA: B1 RNA with U26C, G28C, U29C, U30A
# DNA 1: CAATCTGAATTCCGGTCTCCC
# DNA 2: TGGTGGCTACGACGGGATT
# B29: UAUUUUU (DNA:RNA)
# RNA: B1 RNA with C25U, U26A, G28U, C31U
# DNA 1: CAATCTGAATTCCGGTCTCCC
# DNA 2: TGGTGGCTACGACGGGATT
# B30: UCACUCC (DNA:RNA)
# RNA: B1 RNA with C25U, U26C, U27A, G28C, U30C
# DNA 1: CAATCTGAATTCCGGTCTCCC
# DNA 2: TGGTGGCTACGACGGGATT
# B31: AGGGUAA (DNA:RNA)
# RNA: B1 RNA with C25A, U26G, U27G, U30A, C31A
# DNA 1: CAATCTGAATTCCGGTCTCCC
# DNA 2: TGGTGGCTACGACGGGATT
# Molecular target: T1, RBFOX1 RRM RbFoxmut (Fox-RRM*)
# Assay: EMSA; HiTS-Eq, 1 nM pool, 10 min; buffer printed only for the single-RNA assays: 10 mM Tris pH 7.5, 150 mM NaCl, 3.4 mM EDTA, 0.001% NP-40, 30 C
# Conditions: tags: His6 N-terminal (pET28a); label: 5' 32P
# Procedure, shortened: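 A pool of RNA with 7 randomized nucleotides, 5′-radiolabelled and with DNA-annealed flanks, was equilibrated at 1 nM for 10 min in 50 µL with purified RbFox RRM, wild type or mutant, across increasing protein concentrations. Free RNA was separated by 8% native PAGE, excised, reverse-transcribed, barcoded by PCR and sequenced. Relative association constants were obtained from read-count changes of each RNA species versus the control reaction and normalised to the cognate motif.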
row,Binder,binding signal
1,B1,0.111 KA relative to UGCAUGU
2,B2,0.0996 KA relative to UGCAUGU
3,B3,0.115 KA relative to UGCAUGU
4,B4,0.129 KA relative to UGCAUGU
5,B5,0.0588 KA relative to UGCAUGU
6,B6,0.0702 KA relative to UGCAUGU
7,B7,0.0693 KA relative to UGCAUGU
8,B8,0.0797 KA relative to UGCAUGU
9,B9,0.0629 KA relative to UGCAUGU
10,B10,0.0681 KA relative to UGCAUGU
11,B11,0.0854 KA relative to UGCAUGU
12,B12,0.0785 KA relative to UGCAUGU
13,B13,0.0621 KA relative to UGCAUGU
14,B14,0.197 KA relative to UGCAUGU
15,B15,0.0954 KA relative to UGCAUGU
16,B16,0.0937 KA relative to UGCAUGU

row,Binder,binding signal
1,B17,0.0794 KA relative to UGCAUGU
2,B18,0.0666 KA relative to UGCAUGU
3,B19,0.113 KA relative to UGCAUGU
4,B20,0.0784 KA relative to UGCAUGU
5,B21,0.0814 KA relative to UGCAUGU
6,B22,0.0769 KA relative to UGCAUGU
7,B23,0.0639 KA relative to UGCAUGU
8,B24,0.0881 KA relative to UGCAUGU
9,B25,0.0766 KA relative to UGCAUGU
10,B26,0.089 KA relative to UGCAUGU
11,B27,0.167 KA relative to UGCAUGU
12,B28,0.0616 KA relative to UGCAUGU
13,B29,0.0838 KA relative to UGCAUGU
14,B30,0.0541 KA relative to UGCAUGU
15,B31,0.153 KA relative to UGCAUGU
